{
  "source": "PubChem BioAssay AID485294",
  "about": "(National Center for Advancing Translational Sciences (NCATS), 2010)",
  "note": "Hit rate of the full screen: of about 370,000 compounds, about 150 (0.041%) were called active. Inconclusive means that the source gave no clear call. Such entries were picked first, then a sample of the others. Calls follow the shape of the dose curve; as a rule, active = well fitted inhibition curve with a large enough effect; inconclusive = small, poorly fitted or top-dose-only effect; inactive = flat fitted curve, though single readings scatter. Potencies of inconclusive entries are left out as doubtful fits. Potency is read from the fitted curve at half-maximal effect; tags tell the direction and shape of the fitted curve.",
  "data": [
    {"molecular_target": "Beta-lactamase (Escherichia coli (strain K12)) (UniProt P00811)", "sequence (P00811 whole entry, looked up)": "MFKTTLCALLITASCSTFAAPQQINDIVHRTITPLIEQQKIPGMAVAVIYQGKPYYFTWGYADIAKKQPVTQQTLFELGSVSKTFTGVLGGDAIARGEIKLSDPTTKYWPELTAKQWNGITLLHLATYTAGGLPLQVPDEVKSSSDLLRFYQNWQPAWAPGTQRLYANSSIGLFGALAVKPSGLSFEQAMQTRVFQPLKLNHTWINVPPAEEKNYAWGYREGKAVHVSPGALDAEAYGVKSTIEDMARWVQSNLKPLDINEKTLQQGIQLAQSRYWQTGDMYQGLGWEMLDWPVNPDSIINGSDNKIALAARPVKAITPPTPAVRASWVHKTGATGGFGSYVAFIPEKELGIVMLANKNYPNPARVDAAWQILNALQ", "assay": "qHTS Inhibitors of AmpC Beta-Lactamase (assay with detergent); also: nearly all actives have a fitted effect of over 25% in size", "details": "AmpC hydrolysis of nitrocefin, absorbance 480 nm, 0.01% Triton; series mostly up to 114 µM", "how_it_was_run": "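20 mM phosphate pH 7.0 + 0.01% (detergent screen) or 0.0001% Triton X-100; 5.3 nM AmpC reagent; cpd preinc 15 min RT; nitrocefin (800 uM stock) to start; A480 q20 s × 4 min; Activity was normalised to no-enzyme and no-compound control wells.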", "values": [
      {"smiles": "O=C(c1ccc([N+](=O)[O-])s1)N1CCc2ccccc21", "Potency": "inconclusive [inhibitor, partial curve, poor fit]"},
      {"smiles": "COc1ccc2c(c1)CCc1c(C(=O)N3CCCc4ccccc43)noc1-2", "Potency": "inactive"},
      {"smiles": "COCCNC(=O)CCn1c(=O)oc2ccccc21", "Potency": "inconclusive [inhibitor, full curve, poor fit]"},
      {"smiles": "Cc1ccc(C)c(N2CCN(C(=O)c3cnc4c(-c5ccccc5)c(C)nn4c3C)CC2)c1", "Potency": "inconclusive [inhibitor, single point]"},
      {"smiles": "CCOc1ccc(C(=O)NCCC(=O)NCCCC(=O)O)cc1", "Potency": "inconclusive [inhibitor, full curve, poor fit]"},
      {"smiles": "CCOC(=O)c1c(NC(C)=O)c2c3c(sc2n1Cc1nc(-c2ccccc2OCC)oc1C)CCCC3", "Potency": "inactive"},
      {"smiles": "CCOC(=O)C1CCCN(CC(O)COc2ccc(OC)cc2C(C)(C)C)C1", "note": "(stereo unspecified)", "Potency": "inconclusive [inhibitor, full curve, poor fit]"},
      {"smiles": "OCCNC1=NCCN1", "Potency": "inactive"},
      {"smiles": "CCN(CC)C(=O)CSc1ncnc2c1cnn2Cc1ccccc1", "Potency": "inconclusive [inhibitor, full curve, poor fit]"},
      {"smiles": "CN(C)c1ccc(/C=C/c2cc[n+](C)c3ccccc23)cc1", "Potency": "inactive"},
      {"smiles": "CCN(C(=O)COC(=O)c1cc(-c2ccc(C)o2)nc2ccccc12)C1CCS(=O)(=O)C1", "note": "(stereo unspecified)", "Potency": "inactive"},
      {"smiles": "Cc1cccc(NC(=O)NCCn2c(=O)oc3ccc(C)cc32)c1", "Potency": "inactive"},
      {"smiles": "COc1ccc(C2CC(c3ccc(Cl)cc3Cl)Nc3nc(N)nn32)cc1OC", "note": "(stereo unspecified)", "Potency": "inconclusive [inhibitor, partial curve]"},
      {"smiles": "CC1=NN(C(N)=S)C(=O)C1N=Nc1ccccc1Cl", "note": "(stereo unspecified)", "Potency": "inconclusive [inhibitor, full curve, poor fit]"},
      {"smiles": "CCOc1ccc(NC(=O)COc2ccc(C(=O)NCC3CCCO3)cc2OC)cc1", "note": "(stereo unspecified)", "Potency": "inconclusive [inhibitor, full curve, poor fit]"},
      {"smiles": "O=C(Cn1c(=O)n(CCc2c[nH]c3ccccc23)c(=O)c2cccnc21)Nc1ccccc1F", "Potency": "inconclusive [inhibitor, partial curve, poor fit]"},
      {"smiles": "COc1ccc(C)cc1NC(=O)CSc1ccc(-c2sc(C)nc2C)nn1", "Potency": "inactive"},
      {"smiles": "CS(=O)(=O)c1cc([N+](=O)[O-])c(Sc2nc3ccccc3[nH]2)c([N+](=O)[O-])c1", "Potency": "inconclusive [inhibitor, single point]"},
      {"smiles": "CSc1ccccc1NC(=O)CN1c2ccccc2CC1C", "note": "(stereo unspecified)", "Potency": "inconclusive [inhibitor, single point]"},
      {"smiles": "CC12CC3CC(C)(C1)CC(C(=O)NCc1ccncc1)(C3)C2", "Potency": "inactive"},
      {"smiles": "C/C(=N\\NC(=O)c1ccccc1F)c1cccc(NC(=O)c2ccc(C)cc2)c1", "Potency": "inconclusive [inhibitor, partial curve, poor fit]"},
      {"smiles": "CCCCn1c(CN2CCN(C)CC2)nc2ccccc21", "Potency": "inconclusive [inhibitor, full curve, poor fit]"},
      {"smiles": "O=C(NCc1ccco1)c1cc2nc(C3CC3)cc(C(F)(F)F)n2n1", "Potency": "inconclusive [inhibitor, full curve, poor fit]"},
      {"smiles": "CC1CCCC(C)N1CCCNC(=O)c1ccc2nc(N3CCCCC3)sc2c1", "note": "(stereo unspecified)", "Potency": "inconclusive [inhibitor, full curve, poor fit]"},
      {"smiles": "Cc1ccc(F)cc1NC(=O)COC(=O)c1ccc2ncsc2c1", "Potency": "inconclusive [inhibitor, partial curve, poor fit]"},
      {"smiles": "CN1CCN(C(=O)c2ccc3c(c2)N(Cc2ccccc2F)C(=O)c2ccccc2S3=O)CC1", "note": "(stereo unspecified)", "Potency": "inconclusive [inhibitor, full curve, poor fit]"},
      {"smiles": "Cc1ccc(NC(=S)N2CCN(Cc3ccccc3)CC2)cc1", "Potency": "inconclusive [inhibitor, single point]"},
      {"smiles": "Cc1cc(C(=O)Nc2ccccc2C#N)n(-c2ccccc2)n1", "Potency": "inconclusive [inhibitor, full curve, poor fit]"},
      {"smiles": "CCN(CC(=O)Nc1cc(Cl)ccc1C)C(=O)c1oc2ccc(OC)cc2c1C", "Potency": "inconclusive [inhibitor, full curve, poor fit]"},
      {"smiles": "COC(=O)[C@@]1(Cc2ccc(F)cc2)[C@H]2c3cc(C(=O)N4CCCC4)n(CCCNc4ncc(C(F)(F)F)cc4Cl)c3C[C@H]2CN1C(=O)c1ccccc1", "Potency": "inactive"},
      {"smiles": "CCOC(=O)Nc1ccc2c(c1)N(C(=O)CCN1CCOCC1)c1ccccc1S2=O", "note": "(stereo unspecified)", "Potency": "inconclusive [inhibitor, full curve, poor fit]"},
      {"smiles": "CCCCNC(=O)NS(=O)(=O)c1ccc(NS(=O)(=O)c2ccccc2)cc1", "Potency": "inconclusive [inhibitor, full curve, poor fit]"},
      {"smiles": "COc1cc(NC(=O)C2CCCN(S(=O)(=O)c3cn(C)cn3)C2)cc(OC)c1", "note": "(stereo unspecified)", "Potency": "inactive"},
      {"smiles": "Cc1cccc(NC(=S)NNC(=O)c2nn(C)cc2Cl)c1", "Potency": "inconclusive [inhibitor, full curve, poor fit]"},
      {"smiles": "CC1=NN(Cc2ccccc2)C(=O)C1C(c1ccccc1)C(C#N)C#N", "note": "(stereo unspecified)", "Potency": "inconclusive [inhibitor, partial curve]"},
      {"smiles": "O=C(CSc1ccc([N+](=O)[O-])cn1)Nc1ccc2c(c1)OCO2", "Potency": "inconclusive [inhibitor, full curve, poor fit]"},
      {"smiles": "COC(=O)C1=C(C)N(CC2CC2)C(=O)N[C@H]1c1ccc(Br)cc1", "Potency": "inconclusive [inhibitor, partial curve, poor fit]"},
      {"smiles": "COc1cc(/C=N/Nc2ccc3ccccc3c2)ccc1OC(=O)c1ccco1", "Potency": "inactive"},
      {"smiles": "COc1ccc(-n2nc3c(c2NC(=O)c2ccc(Br)cc2)CS(=O)C3)cc1", "note": "(stereo unspecified)", "Potency": "inconclusive [inhibitor, full curve, poor fit]"},
      {"smiles": "Fc1ccc(C2CC(c3ccc(F)cc3)n3ncnc3N2)cc1", "note": "(stereo unspecified)", "Potency": "inconclusive [inhibitor, full curve, poor fit]"},
      {"smiles": "O=C(Nc1nc(-c2ccc(S(=O)(=O)N3CCCC3)cc2)cs1)C1COc2ccccc2O1", "note": "(stereo unspecified)", "Potency": "inactive"}
    ]}
  ]
}
